# Some of the results follow.
# B1: P-Selectin (Mus musculus), Q01102 (protein)
# chain: MAGCPKGSWTPRLRSVILGGAQLIWFSALISELVNQKEVAAWTYNYSTKAYSWNNSRVFCRRHFTDLVAIQNKNEIAHLNDVIPFFNSYYWIGIRKINNKWTWVGTNKTLTEEAENWADNEPNNKKNNQDCVEIYIKSNSAPGKWNDEPCFKRKRALCYTASCQDMSCSNQGECIETIGSYTCSCYPGFYGPECEYVKECGKVNIPQHVLMNCSHPLGEFSFNSQCTFSCAEGYELDGPGELQCLASGIWTNNPPKCDAVQCQSLEAPPHGTMACMHPIAAFAYDSSCKFECQPGYRARGSNTLHCTGSGQWSEPLPTCEAIACEPPEIPIHGSMDCVPSTGTFGYNSSCTFLCAEGFVLKGNDAIQCADSGQWTAPAPFCEALQCPEFPVPSKAQVNCSDPFGTLTYQSVCSFSCDEGSLLVGASVIRCLATGHWNGAPPECQAVSCAPMLSPENGSMTCVQPLGNSTYKSTCQFMCDEGFYLSGPERLDCSPSGHWTGTPPTCEAIKCPGIFAPEQGNLDCSHVHGEFGVGSICHFSCNEDFELLGSENVECTVSGRWSAPPPTCKGITSLPAPAVRCPALTTPGQGTMSCQHHLGSFGPNTTCYFGCKTGFTLRGANSLRCRASGQWTAVTPMCRAVKCSELHMDTAVAMNCSNPWGNFSYGSTCTFQCPEGQSLNGSVRATCREDGHWSDAMPTCQAGTLTIQEALTYLGGAVASTTGLAVGGTLLALLRKRLRKKDDGKCPLNPHSHLGTYGVFTNAAYDPTP
# Experiments:
# Assay in all cases: glycan array binding signal (z-score within array); higher = stronger binding
# Settings in all cases: glycan notation: IUPAC condensed, linker removed
# [1] = target: Neu5Ac(a2-3)Gal(b1-3)GlcNAc(b1-3)Gal(b1-3)GlcNAc
# In short: (§1)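 Glycan array binding is given as a within-array Z-score, which can be read as non-binding when negative. The arrays, 3228 of them, came from the Consortium for Functional Glycomics database and were retained only where the protein sequence was available. Z-scores were averaged across arrays of the same protein sequence at different concentrations or buffers and across linkers.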
# [2] = target: Neu5Ac(a2-3)Gal(b1-3)GlcNAc6S
# In short: as §1
# [3] = target: Neu5Ac(a2-3)Gal(b1-3)[Fuc(a1-4)]GlcNAc
# In short: as §1
# [4] = target: Neu5Ac(a2-3)Gal(b1-3)[Fuc(a1-4)]GlcNAc(b1-3)Gal(b1-4)[Fuc(a1-3)]GlcNAc
# In short: as §1
# [5] = target: Neu5Ac(a2-3)Gal(b1-3)[Neu5Ac(a2-3)Gal(b1-4)]GlcNAc
# In short: as §1
# [6] = target: Neu5Ac(a2-3)Gal(b1-3)[Neu5Ac(a2-6)]GalNAc
# In short: as §1
# Neu5Ac(a2-3)Gal(b1-4)Glc = target: Neu5Ac(a2-3)Gal(b1-4)Glc
# In short: as §1
# [7] = target: Neu5Ac(a2-3)Gal(b1-4)GlcNAc
# In short: as §1
# [8] = target: Neu5Ac(a2-3)Gal(b1-4)GlcNAc(b1-2)Man(a1-3)[GlcNAc(b1-2)Man(b1-4)GlcNAc(b1-2)Man(a1-6)]Man(b1-4)GlcNAc(b1-4)GlcNAc
# In short: as §1
# [9] = target: Neu5Ac(a2-3)Gal(b1-4)GlcNAc(b1-2)Man(a1-3)[Neu5Ac(a2-3)Gal(b1-4)GlcNAc(b1-2)Man(a1-6)]Man(b1-4)GlcNAc(b1-4)GlcNAc
# In short: as §1
# [10] = target: Neu5Ac(a2-3)Gal(b1-4)GlcNAc(b1-2)Man(a1-3)[Neu5Ac(a2-6)Gal(b1-4)GlcNAc(b1-2)Man(a1-6)]Man(b1-4)GlcNAc(b1-4)GlcNAc
# In short: as §1
# [11] = target: Neu5Ac(a2-3)Gal(b1-4)GlcNAc(b1-3)Gal(b1-3)GlcNAc
# In short: as §1
# [12] = target: Neu5Ac(a2-3)Gal(b1-4)GlcNAc(b1-3)Gal(b1-4)GlcNAc
# In short: as §1
# [13] = target: Neu5Ac(a2-3)Gal(b1-4)GlcNAc(b1-3)Gal(b1-4)GlcNAc(b1-3)Gal(b1-4)GlcNAc
# In short: as §1
# [14] = target: Neu5Ac(a2-3)Gal(b1-4)GlcNAc(b1-3)Gal(b1-4)[Fuc(a1-3)]GlcNAc
# In short: as §1
# [15] = target: Neu5Ac(a2-3)Gal(b1-4)GlcNAc(b1-6)[Gal(b1-3)]GalNAc
# In short: as §1
# [16] = target: Neu5Ac(a2-3)Gal(b1-4)GlcNAc(b1-6)[Neu5Ac(a2-3)Gal(b1-3)]GalNAc
# In short: as §1
# [17] = target: Neu5Ac(a2-3)Gal(b1-4)GlcNAc6S
# In short: as §1
# [18] = target: Neu5Ac(a2-3)Gal(b1-4)[Fuc(a1-3)]GlcNAc
# In short: as §1
# [19] = target: Neu5Ac(a2-3)Gal(b1-4)[Fuc(a1-3)]GlcNAc(b1-3)Gal
# In short: as §1
# [20] = target: Neu5Ac(a2-3)Gal(b1-4)[Fuc(a1-3)]GlcNAc(b1-3)Gal(b1-4)GlcNAc
# In short: as §1
# [21] = target: Neu5Ac(a2-3)Gal(b1-4)[Fuc(a1-3)]GlcNAc(b1-3)Gal(b1-4)[Fuc(a1-3)]GlcNAc(b1-3)Gal(b1-4)[Fuc(a1-3)]GlcNAc
# In short: as §1
# [22] = target: Neu5Ac(a2-3)Gal(b1-4)[Fuc(a1-3)]GlcNAc(b1-6)[Gal(b1-3)]GalNAc
# In short: as §1
# [23] = target: Neu5Ac(a2-3)Gal(b1-4)[Fuc(a1-3)]GlcNAc6S
# In short: as §1
# [24] = target: Neu5Ac(a2-3)Gal6S(b1-4)GlcNAc
# In short: as §1
# [25] = target: Neu5Ac(a2-3)Gal6S(b1-4)[Fuc(a1-3)]GlcNAc
# In short: as §1
# Neu5Ac(a2-3)GalNAc = target: Neu5Ac(a2-3)GalNAc
# In short: as §1
# [26] = target: Neu5Ac(a2-3)GalNAc(b1-4)GlcNAc
# In short: as §1
# [27] = target: Neu5Ac(a2-3)[GalNAc(b1-4)]Gal(b1-4)Glc
# In short: as §1
# [28] = target: Neu5Ac(a2-3)[GalNAc(b1-4)]Gal(b1-4)GlcNAc
# In short: as §1
binder,measurement,setting,value
B1,glycan array binding signal (z-score),[1],-0.268
same,glycan array binding signal (z-score),[2],0.547
same,glycan array binding signal (z-score),[3],2.9
same,glycan array binding signal (z-score),[4],3.15
same,glycan array binding signal (z-score),[5],-0.297
same,glycan array binding signal (z-score),[6],-0.237
same,glycan array binding signal (z-score),Neu5Ac(a2-3)Gal(b1-4)Glc,0.472
same,glycan array binding signal (z-score),[7],-0.414
same,glycan array binding signal (z-score),[8],-0.142
same,glycan array binding signal (z-score),[9],-0.154
same,glycan array binding signal (z-score),[10],0.209
same,glycan array binding signal (z-score),[11],-0.276
same,glycan array binding signal (z-score),[12],0.111
same,glycan array binding signal (z-score),[13],-0.574
same,glycan array binding signal (z-score),[14],-0.342
same,glycan array binding signal (z-score),[15],-0.245
same,glycan array binding signal (z-score),[16],-0.169
same,glycan array binding signal (z-score),[17],0.918
same,glycan array binding signal (z-score),[18],3.21
same,glycan array binding signal (z-score),[19],2.4
same,glycan array binding signal (z-score),[20],1.85
same,glycan array binding signal (z-score),[21],0.401
same,glycan array binding signal (z-score),[22],1.67
same,glycan array binding signal (z-score),[23],3.56
same,glycan array binding signal (z-score),[24],-0.056
same,glycan array binding signal (z-score),[25],0.042
same,glycan array binding signal (z-score),Neu5Ac(a2-3)GalNAc,-0.381
same,glycan array binding signal (z-score),[26],-0.467
same,glycan array binding signal (z-score),[27],-0.331
same,glycan array binding signal (z-score),[28],-0.149
